Data on 86 sequences can be found in the supplement of paper PMC3334620.

Whole data set: some 33,000 sequences, median “E-score (-0.5 to 0.5)” near -0.012, cut for the highest 2% near 0.27. The list shows a part of the results.

The assay concerns the target T1, Vhr1 (UniProt P40522).
T1 sequence: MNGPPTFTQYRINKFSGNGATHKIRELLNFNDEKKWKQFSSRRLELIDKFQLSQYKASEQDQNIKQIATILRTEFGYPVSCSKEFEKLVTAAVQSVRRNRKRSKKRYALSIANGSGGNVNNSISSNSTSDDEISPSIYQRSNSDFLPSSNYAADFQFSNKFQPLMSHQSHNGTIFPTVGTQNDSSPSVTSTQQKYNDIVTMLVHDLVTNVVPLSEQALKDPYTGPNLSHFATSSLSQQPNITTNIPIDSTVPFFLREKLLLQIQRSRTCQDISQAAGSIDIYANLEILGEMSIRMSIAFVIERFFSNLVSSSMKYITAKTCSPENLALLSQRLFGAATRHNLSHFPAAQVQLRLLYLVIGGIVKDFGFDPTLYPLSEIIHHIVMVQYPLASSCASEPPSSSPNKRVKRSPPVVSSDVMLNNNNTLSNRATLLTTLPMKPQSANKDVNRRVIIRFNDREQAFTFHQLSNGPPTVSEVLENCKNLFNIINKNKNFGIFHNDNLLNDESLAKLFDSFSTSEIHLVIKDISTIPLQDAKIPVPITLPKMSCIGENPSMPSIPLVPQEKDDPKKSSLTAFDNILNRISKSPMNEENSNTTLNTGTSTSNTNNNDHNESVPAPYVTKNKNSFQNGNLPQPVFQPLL
The assay can be described thus: PBM E-score (8-mer binding enrichment) (E-score (-0.5 to 0.5)); higher = stronger / more preferred TF binding; most listed sequences are background and not binding sites. The settings on record: protein concentration: 200 nM; construct: GST-full length. The method, boiled down: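 Universal all-10-mer Agilent arrays, double-stranded by primer extension on fresh or once-stripped slides, were probed with about 100-200 nM GST-tagged yeast transcription factors made by PURExpress. Fluorescent anti-GST detected bound protein, and masliner normalised the scans. E-scores from the Universal PBM Analysis Suite were given to each ungapped eight-base word pooled with its reverse complement.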
With ATTGAAAG, the “PBM E-score” value is -0.163. With AGCAGTCA, the “PBM E-score” value was determined as 0.256.

Turning to TGTAGGAA, the “PBM E-score” value is -0.181. Turning to ATGTCCTA, the “PBM E-score” value is -0.147. The figure for ACATCCCT is 0.111; for AAATACCG it is -0.0804. CACGTCCC: the “PBM E-score” value was determined as 0.0143. In the case of AGGTTGAA it was -0.127; in that of AAGAGCTG, 0.0538; in that of TATCGGGA, -0.105. As for AGTTAGTG, the “PBM E-score” value is -0.00305. The figure for AAATAGAT is 0.0278; for TGCCAACA it is 0.0278; for AAACCGTG it is 0.0439. In the case of ACTTTTGG, the “PBM E-score” value was -0.146. In the case of TATCCATA it was 0.161; in that of CCTGCAGC, -0.139.

Take CCGTTACA: the “PBM E-score” value came to 0.0703. Turning to GCCGCATA, the “PBM E-score” value was 0.0965. With ACTCAACG, the “PBM E-score” value is 0.171. In the case of ACGGCGCT, the “PBM E-score” value is -0.13. In the case of ACTTAAGG it was -0.0956. In the case of ATAGGTGG, the “PBM E-score” value was 0.0474.

With ATTGACCC, the “PBM E-score” value is -0.00745. On to AACAAGGG, for which the “PBM E-score” value was -0.191. In the case of ATATTTCA it was -0.0213. The figure for CTCCCAAA is 0.0311. The figure for AAGATCTG is 0.0327.

CGCATCAA: the “PBM E-score” value stood at 0.11. The figure for AAAATGGT is 0.0699; for AAACAAAC it is -0.157. The figure for GGCTCATA is 0.0151.

As for CATTCCGA, the “PBM E-score” value was 0.0348. For the sequence CTGATAGC, the “PBM E-score” value was found to be 0.0382. CAAATCAG: the “PBM E-score” value is -0.0128. In the case of GGGGCCCA it was -0.0152; in that of TACGACGA, 0.137. As for ACCCCAAA, the “PBM E-score” value stood at 0.156. The figure for CCTAAATA is -0.103; for AGCACCTC it is -0.13. As to CGGTTACC, the “PBM E-score” value was determined as 0.189. GCGTCAAA: the “PBM E-score” value came to 0.0589. In the case of ACACGCGT it was 0.129; in that of AGTTGCTC, -0.207; in that of GCAACGCC, -0.0569. The figure for ATATTAAG is 0.0995; for AAAACTTT it is -0.187; for AACGGCCA it is -0.145.

Take CACTGGTC: the “PBM E-score” value turned out to be 0.092.

In the case of AAATGACC, the “PBM E-score” value is -0.0604.

In the case of GGCCTAAA, the “PBM E-score” value is -0.246. The figure for ACAGACAG is 0.179; for ACCAGTGG it is 0.0651. In the case of ACTGTCGA it was 0.0975; in that of GACGTCGA, 0.12. The figure for ATCCTTTC is -0.15; for GGCGGGGA it is 0.409; for CCGATCTA it is -0.0721.

As for ACAGTGGT, the “PBM E-score” value is 0.184.

As to CGAAACGC, the “PBM E-score” value is -0.216.

For AGTAGCGG, the “PBM E-score” value was found to be 0.0569. In the case of GAATGCCA it was 0.0433. Consider AGGTATAG, for which the “PBM E-score” value was found to be 0.0604.

For CACGACCA, the “PBM E-score” value was determined as 0.168. Regarding CTACCTGC, the “PBM E-score” value was -0.0175.

As for ATCCGAGA, the “PBM E-score” value is 0.109. On to AGCTGGGA, for which the “PBM E-score” value came to 0.0468. Regarding CACAGCCA, the “PBM E-score” value was 0.21.

AGGCCGTC: the “PBM E-score” value is -0.0289. The figure for CGCCCAGC is 0.208; for GAGTACCC it is 0.0663. For the sequence GCGTAGGA, the “PBM E-score” value was -0.00723. On to CTGAACAC, for which the “PBM E-score” value came out at 0.246.

Take AGCCATCC: the “PBM E-score” value is 0.106. The figure for ATCGATTG is 0.0202; for AACGCCAG it is 0.234. As for GCAAGGGC, the “PBM E-score” value was -0.153. In the case of CCGGCACC it was 0.106. In the case of CTTATGCC it was -0.0185; in that of CACGCGCG, -0.00034; in that of TTGCCAAA, -0.0393. Turning to AACCCTGA, the “PBM E-score” value is 0.286. In the case of TACAAACA it was 0.194; in that of CATGCCTA, -0.0143; in that of CCCTCGCC, 0.0976.

Regarding GAACATGA, the “PBM E-score” value turned out to be 0.206.
